# Results reported in ChEMBL document CHEMBL4888484, “Replenishing the malaria drug discovery pipeline: Screening and hit evaluation of the MMV Hit Generation Library 1 (HGL1) against asexual blood stage Plasmodium falciparum ,using a nano luciferase reporter read-out” (2022).
# In all, about 150,000 compounds went through this assay and about 540 (0.36%) showed an effect of 50% or more. Some of the results follow.
# Tested on: Plasmodium falciparum
# Assay: Primary screen in NF54 nanoGlo assay, in single point, at 2uM, 72h; a lower Z score goes with more inhibition
# Type: functional, Erythrocyte
# Conditions: timepoint 72 hour
SMILES,% Inhibition [%],Z score
O=C(Nc1ccccc1)C(=O)N1CC[C@@]2(CCCN(CC3CCC3)C2=O)C1,-13,1.41
O=C(CCCc1ccccc1)N1CCC(n2ccnn2)CC1,-5,0.59
CCCS(=O)(=O)N[C@H]1CCN(Cc2ccc(OCC)nc2)C1,2,-0.3
Cc1n[nH]c(C)c1CCCN[C@@H](C)C(=O)NC1CCCC1,-12,1.54
CNC(=O)CCN(C)Cc1ccc(C2CCCC2)s1,-3,0.47
Cc1cc(CC(=O)N[C@@H](C)c2nc(CC(C)C)no2)on1,-8,1.51
CCN(CC(=O)Nc1ccc(NC(C)=O)cc1)S(=O)(=O)[C@@H](C)C(F)(F)F,-9,1.12
CC(C)n1cc(NC(=O)Cn2cc(-c3nccc(C(F)(F)F)n3)cn2)nn1,-10,1.48
CC1CN(S(=O)(=O)c2ccc3c(c2)CCO3)C(C)CO1 (stereo not drawn),-2,0.4
COc1cc(-c2nc(COc3ccc(C(N)=O)cc3)c(C)o2)cc2c1OCO2,8,-1.08
Cc1c(C(=O)N2CCN(C)C3(CCN(C)CC3)C2)nnn1Cc1ccccc1,-13,1.3
Cc1cc(O)cc(=O)n1CCc1c[nH]c2ccc(O)cc12,-3,0.33
Cc1nc(N2CCCC2)c2c(C(=O)NCc3ccc4c(c3)OCO4)c(C)oc2n1,4,-0.62
CCc1noc([C@H](C)NS(=O)(=O)c2cnn(CC)c2)n1,-15,1.47
CCCNC(=O)[C@H](C)NC(=O)c1cc(F)cc(F)c1,-44,5.11
O=C(COc1ccccc1)N1CCc2n[nH]c(=O)cc2C1,2,-0.26
c1cncc(COc2cccc(-c3noc(Cc4ccn[nH]4)n3)c2)c1,-5,0.96
Cn1cc(CN[C@@H]2C[C@H](Cn3cc(C4CC4)nn3)[C@@H](O)[C@H]2O)c2ccccc21,26,-2.92
CN1C[C@@H]2CCCN3CCC[C@@H]([C@H]23)[C@H]1CCCC(=O)NCc1ccccc1,-2,0.34
Cc1occc1CN(C)C(=O)[C@H]1CCO[C@@H]1c1cccnc1,4,-0.68
CCC(=O)Nc1cc(-c2ccccc2)nn(CC(=O)N2CCc3ccccc32)c1=O,2,-0.33

SMILES,% Inhibition [%],Z score
CN1CCCC[C@@H]1CCC(=O)NCCc1nc(-c2ccccc2)no1,-19,2.02
Cc1ccc(OCC(=O)Nc2sc3c(c2C#N)CCCC3)c(-n2cnnc2)c1,-5,0.64
CNC(=O)NC1CN(C(=O)C2(c3c(F)cccc3F)CCC2)C1,-1,0.17
CCOC(=O)[C@H]1CCCN(C(=O)c2nc(CCc3ccccc3)n(-c3ccccc3)n2)C1,-2,0.45
CC(=O)Nc1ccc(S(=O)(=O)NC(C)(C)C(C)(F)F)c(F)c1,-5,0.96
COc1ccc(C)cc1[C@@H](C)OC(=O)c1ccc2nncn2c1,2,-0.37
CCOc1ccc(NC(=O)N2CCC([C@@H]3CCCO3)CC2)cn1,-15,1.5
Cc1cc2c(cc1CN1CC[C@H](CNC(=O)C3CCC3)C1)OCO2,-10,1.04
CN(C)C(=O)[C@H]1C[C@H]1C(=O)Nc1ccc(Cl)c(Cl)c1,-5,0.72
CC(C)Cn1ncc2[nH]c(CC(C)(C)C)nc21,3,-0.39
CCN1CC(C(=O)NC2CCc3nccn3C2)CC1=O (stereo not drawn),2,-0.36
C=CCN(C(C)=O)c1nc(-c2c[nH]c3ccccc23)cs1,-3,0.47
Clc1ccc([C@@H]2CN(c3noc(C4CC4)n3)CCO2)cc1,-10,1.41
Cc1cnc(C)c(-c2cc(O)c3c(c2)CN(c2ncnc4[nH]ccc24)CCO3)n1,-6,0.58
O=C1CN(C(=O)Cn2nnc3ccccc32)c2ccccc2N1,-12,1.37
COc1cc(CN(C)CCC(=O)N(C)OC)sn1,-10,1.6
Cc1noc(C2CN(Cc3ccc(Br)cc3)C2)n1,-2,0.35
CN(C)S(=O)(=O)c1ccc(NC2CCC3(CC2)OCCO3)c(S(N)(=O)=O)c1,2,-0.19
CO[C@H]1[C@@H]2CC[C@H]1CN(C(=O)NCCc1csc(-c3ncccn3)n1)C2,0,-0.04
CCOc1ccc(C(=O)NCc2sc(-c3ccccc3Cl)nc2C)cc1,5,-1.04
Cc1cc(C)nc(CN(C)C(=O)c2cnc(NC(C)C)nc2)c1,-15,1.36

SMILES,% Inhibition [%],Z score
CCOC(=O)c1c(C)[nH]c(-c2ccccc2)c1-c1ccccc1,-9,1.57
CCCCN(CCC(=O)Nc1nnc(-c2ccc(C)cc2)s1)C(=O)C1CCC1,-14,1.59
O=C(O)C1CCN(C(=O)Nc2ccnc(Oc3ccccc3Cl)c2)CC1,-13,2.52
Cc1nc(C(=O)NC[C@H]2CC3c4ccccc4C2c2ccccc23)n(C)n1,-1,0.12
Cc1nc([C@H]2CCOC2)cc(N2CCN(C3CCN(C)CC3)CC2)n1,7,-0.92
CC(C)[C@@H](C(=O)NCc1nnc(C2CC2)o1)N1CCCCC1,-15,2.74
CC(=O)N1C[C@@H]2CCCN3CCC[C@@H]([C@H]23)[C@H]1CCCC(=O)NCc1cc(F)cc(F)c1,2,-0.41
CN=C(NCC(C)C)NC[C@H](O)c1cc(OC)ccc1OC,-14,1.32
CCS(=O)(=O)Nc1ccc(S(=O)(=O)N2CCC=C(F)C2)cc1F,-13,1.67
Cc1ccc2c(c1)cc(CN1CCn3nc(CO)cc3C1)n2C,-1,0.21
CC(C)(CN1CCOCC1)CN1CCC[C@H]1c1nc(-c2ccccn2)no1,5,-0.61
CCO[C@H](c1noc(-c2cc(C)no2)n1)C1CCOCC1,10,-1.29
Cn1nccc1NC(=O)Cn1ccc2cc(-c3ccc4c(c3)OCO4)ccc21,-4,0.64
COc1ccc(Nc2cccc(NC(=O)C3(C(F)(F)F)CCOCC3)c2)cc1,1,-0.19
O=C(CCNC(=O)C1CCN(S(=O)(=O)c2ccc(Cl)cc2)CC1)NC1CC1,-1,0.16
C[C@]1(O)CCN(S(=O)(=O)c2cccc3c2CCCC3)C1,-1,0.11
CN1C2CCC1CN(C(=O)Nc1ccc(S(C)(=O)=O)c(C(F)F)c1)CC2 (stereo not drawn),-16,3.08
N#CC1(C(=O)N[C@@H]2CCCC(F)(F)[C@H]2O)CCCC1,-10,1.46
CCc1nc(C)ccc1OCc1nnc(C)n1C1CC1,-7,0.83
O=C(CN1CCOCC1)N1CCN(Cc2nc(-c3ccsc3)no2)CC1,-5,1.02
C[C@@H](C(=O)Nc1ccccc1N1CCc2ccccc21)n1cncn1,-1,0.13

SMILES,% Inhibition [%],Z score
CCN1c2cc(C(=O)Nc3ccc(C)c(F)c3)ccc2C(=O)N2CCC[C@@H]21,9,-1.13
CC[C@H]1C=CCN1C(=O)c1coc(CN2CCN(c3ncccn3)CC2)n1,0,-0.03
Cc1cccnc1N(C(=O)c1cccs1)C(=O)c1cccs1,-14,1.79
CC(C)c1nccc(CN(C)CC2(C)COC2)n1,-13,1.25
O=C(NCC1CCN(C(=O)c2cn3cc(Cl)ccc3n2)CC1)[C@@H]1CCCO1,-2,0.36
COC(=O)c1nc(NC(=O)Cc2ccc3c(c2)OCC3)sc1CC(C)C,-15,1.92
CCCCCc1ccc(C(=O)N2CCN(c3nc(-c4cccc(C)c4)nc(C)c3CC)CC2)cc1,-2,0.47
COC(=O)C(C)(C)CNC1CCC(C)C1 (stereo not drawn),-9,0.93
Cc1ncccc1OCC(=O)N1CCCCC1,-7,1.19
c1ccc(CN(Cc2ccco2)C[C@H]2CCOC2)nc1,15,-1.96
CCN(CC)CCn1ccnc1-c1ccc2onc(C)c2c1,-8,1.02
COc1ccc(Cc2n[nH]c3c2CN(Cc2nccs2)CC3)cc1OC,6,-0.85
CC(C)(C)OC(=O)Nc1ccc(Cl)c(O)c1,-18,2.01
Cc1cc(C#N)c(Br)cc1F,-10,1.13
O=C(NC1CCCCCC1)[C@@H]1CCCN1S(=O)(=O)c1ccc2c(c1)OCCO2,2,-0.29
CCS(=O)(=O)N1CCC2(CC1)O[C@@H](CC(=O)NC(C)C)Cc1ccccc12,3,-0.33
CCOC(=O)N[C@H](C(=O)N1CCCC1)C(C)C,-9,1.35
Cc1cccc(CN(C(=O)c2ccco2)c2ccc(CC(=O)NCc3cccnc3)cc2)c1,-9,1.23
CCn1c(-c2cc(NC(=O)Cc3cccc(OC)c3)[nH]n2)c(C)c2ccccc21,4,-0.62
O=C(CCc1conc1-c1cccc(F)c1)NC1CC1,-8,1.59
O=C1C2ON(c3ccccc3)C(c3ccc(-c4ccc(Br)cc4)o3)C2C(=O)N1c1cccc2ccccc12 (stereo not drawn),-9,0.84
